Values joined by “and” are separate entries in the source; they are usually repeats but may differ in a detail not shown here. Equal entries are not always repeated.
Experiments:
[1] = target: soluble liraglutide (human) (UniProt P01275); test: ELISA Assay (III-B); row labelled 10 uM; two-step purified antibody; raw signal, mean of 3
[2] = target: liraglutide fibrils (human) (UniProt P01275); test: as above
[3] = target: soluble liraglutide (human) (UniProt P01275); test: ELISA Assay (III-B); row labelled 100 uM; two-step purified antibody; raw signal, mean of 3
[4] = target: liraglutide fibrils (human) (UniProt P01275); test: as above
[5] = target: liraglutide fibrils (human) (UniProt P01275); test: ELISA Assay (VI-B); 0.0025 uM fibrils in 1600 uM soluble liraglutide; 50 nM antibody; average of 4 experiments
[6] = target: liraglutide fibrils (human) (UniProt P01275); test: ELISA Assay (VI-B); 0.1 uM fibrils in 1600 uM soluble liraglutide; 50 nM antibody; average of 4 experiments
[7] = target: soluble liraglutide (human) (UniProt P01275); test: ELISA Assay (III-B); row labelled 0.01 uM; two-step purified antibody; raw signal, mean of 3
[8] = target: liraglutide fibrils (human) (UniProt P01275); test: as above
[9] = target: liraglutide fibrils (human) (UniProt P01275); test: ELISA Assay (VI-B); 10 uM fibrils in 1600 uM soluble liraglutide; 50 nM antibody; average of 4 experiments
[10] = target: liraglutide fibrils (human) (UniProt P01275); test: ELISA Assay (VI-B); 0.25 uM fibrils in 1600 uM soluble liraglutide; 50 nM antibody; average of 4 experiments
[11] = target: liraglutide fibrils (human) (UniProt P01275); test: ELISA Assay (VI-B); 0.001 uM fibrils in 1600 uM soluble liraglutide; 50 nM antibody; average of 4 experiments
[12] = target: liraglutide fibrils (human) (UniProt P01275); test: ELISA Assay (III-B); row labelled 30 uM; two-step purified antibody; A450 ratio, mean of 3
[13] = target: soluble liraglutide (human) (UniProt P01275); test: ELISA Assay (III-B); row labelled 0.03 uM; two-step purified antibody; raw signal, mean of 3
[14] = target: liraglutide fibrils (human) (UniProt P01275); test: as above
[15] = target: soluble liraglutide (human) (UniProt P01275); test: ELISA Assay (III-B); row labelled 30 uM; two-step purified antibody; raw signal, mean of 3
[16] = target: liraglutide fibrils (human) (UniProt P01275); test: as above
[17] = target: liraglutide fibrils (human) (UniProt P01275); test: ELISA Assay (VI-B); 0.010 uM fibrils in 1600 uM soluble liraglutide; 50 nM antibody
[18] = target: liraglutide fibrils (human) (UniProt P01275); test: ELISA Assay (VI-B); 0.025 uM fibrils in 1600 uM soluble liraglutide; 50 nM antibody
[19] = target: liraglutide fibrils (human) (UniProt P01275); test: ELISA Assay (VI-B); 0.0025 uM fibrils in 1600 uM soluble liraglutide; 50 nM antibody
[20] = target: liraglutide fibrils (human) (UniProt P01275); test: ELISA Assay (VI-B); 2.5 uM fibrils in 1600 uM soluble liraglutide; 50 nM antibody; average of 4 experiments
[21] = target: soluble liraglutide (human) (UniProt P01275); test: ELISA Assay (III-B); row labelled 300 uM; two-step purified antibody; raw signal, mean of 3
[22] = target: liraglutide fibrils (human) (UniProt P01275); test: as above
[23] = target: liraglutide fibrils (human) (UniProt P01275); test: ELISA Assay (III-B); row labelled 1 uM; two-step purified antibody; A450 ratio, mean of 3
[24] = target: liraglutide fibrils (human) (UniProt P01275); test: ELISA Assay (VI-B); 0.250 uM fibrils in 1600 uM soluble liraglutide; 50 nM antibody
[25] = target: liraglutide fibrils (human) (UniProt P01275); test: ELISA Assay (VI-B); 1.000 uM fibrils in 1600 uM soluble liraglutide; 50 nM antibody
[26] = target: soluble liraglutide (human) (UniProt P01275); test: ELISA Assay (III-B); row labelled 3 uM; two-step purified antibody; raw signal, mean of 3
[27] = target: liraglutide fibrils (human) (UniProt P01275); test: as above
[28] = target: liraglutide fibrils (human) (UniProt P01275); test: ELISA Assay (III-B); row labelled 10 uM; two-step purified antibody; A450 ratio, mean of 3
[29] = target: liraglutide fibrils (human) (UniProt P01275); test: ELISA Assay (VI-B); 25 uM fibrils in 1600 uM soluble liraglutide; 50 nM antibody; average of 4 experiments
[30] = target: liraglutide fibrils (human) (UniProt P01275); test: ELISA Assay (III-B); row labelled 100 uM; two-step purified antibody; A450 ratio, mean of 3
[31] = target: liraglutide fibrils (human) (UniProt P01275); test: ELISA Assay (III-B); row labelled 0.3 uM; two-step purified antibody; A450 ratio, mean of 3
[32] = target: liraglutide fibrils (human) (UniProt P01275); test: ELISA Assay (VI-B); 0.025 uM fibrils in 1600 uM soluble liraglutide; 50 nM antibody; remark: listed apart in the source
[33] = target: liraglutide fibrils (human) (UniProt P01275); test: ELISA Assay (III-B); row labelled 0.01 uM; two-step purified antibody; A450 ratio, mean of 3

- antibody binding signal (absorbance at 450 nm) [1]: 0.06
- antibody binding signal (absorbance at 450 nm) [2]: 0.73
- antibody binding signal (absorbance at 450 nm) [3]: 0.21
- antibody binding signal (absorbance at 450 nm) [4]: 2.78
- Specificity Ratio (liraglutide fibril in mixture/soluble liraglutide) [5]: 2.45
- Specificity Ratio (liraglutide fibril in mixture/soluble liraglutide) [6]: 32.1
- antibody binding signal (absorbance at 450 nm) [7]: 0.05
- antibody binding signal (absorbance at 450 nm) [8]: 0.06
- Specificity Ratio (liraglutide fibril in mixture/soluble liraglutide) [9]: 48.7
- Specificity Ratio (liraglutide fibril in mixture/soluble liraglutide) [10]: 40.8
- Specificity Ratio (liraglutide fibril in mixture/soluble liraglutide) [11]: 1.43
- Liraglutide fibril specificity (Liraglutide fibril/Liraglutide monomer) [12]: 16.3
- antibody binding signal (absorbance at 450 nm) [13]: 0.04
- antibody binding signal (absorbance at 450 nm) [14]: 0.07
- antibody binding signal (absorbance at 450 nm) [15]: 0.1
- antibody binding signal (absorbance at 450 nm) [16]: 1.69
- Specificity Ratio (liraglutide fibril in mixture/soluble liraglutide) [17]: 6.81
- Specificity Ratio (liraglutide fibril in mixture/soluble liraglutide) [18]: 18.2 and 13.7 and 12.8 (2×)
- Specificity Ratio (liraglutide fibril in mixture/soluble liraglutide) [19]: 2.45
- Specificity Ratio (liraglutide fibril in mixture/soluble liraglutide) [20]: 48.3
- antibody binding signal (absorbance at 450 nm) [21]: 0.46
- antibody binding signal (absorbance at 450 nm) [22]: 3.15
- Liraglutide fibril specificity (Liraglutide fibril/Liraglutide monomer) [23]: 3.21
- Specificity Ratio (liraglutide fibril in mixture/soluble liraglutide) [24]: 40.8
- Specificity Ratio (liraglutide fibril in mixture/soluble liraglutide) [25]: 46.6
- antibody binding signal (absorbance at 450 nm) [26]: 0.05
- antibody binding signal (absorbance at 450 nm) [27]: 0.3
- Liraglutide fibril specificity (Liraglutide fibril/Liraglutide monomer) [28]: 11.7
- Specificity Ratio (liraglutide fibril in mixture/soluble liraglutide) [29]: 46.6
- Liraglutide fibril specificity (Liraglutide fibril/Liraglutide monomer) [30]: 13.1
- Liraglutide fibril specificity (Liraglutide fibril/Liraglutide monomer) [31]: 1.9
- Specificity Ratio (liraglutide fibril in mixture/soluble liraglutide) [32]: 14.4
- Liraglutide fibril specificity (Liraglutide fibril/Liraglutide monomer) [33]: 1.39
B1: Antibody M (Fc fusion)
scFv: DIQMTQSPSSLSASVGDRVTITCRASQSVAAAVAWYQQKPDKAPKLLIYSASFLYSGVPSRFSGSRSGTDFTLTISSLQPEDFATYYCQQHNTYPPTFGQGTKVEIKRTSPNSASHSGSAPQTSSAPGSQEVQLVESGGGLVQPGGSLRLSCAASGFNIKDTYIHWVRQAPGKGLEWVARISPSSGSTRYAGSVKGRFTISADTSKNTAYLQMNSLRAEDTAVYYCAREWYEASYYDWFDYFDFSDYWGQGTLVTVSSAAA[human IgG1 Fc not written out]GSHHHHHHKLDYKDHDGDYKDHDIDYKDDDDK
